# The RNAGym collection of RNA variant scans (doi:10.7554/elife.90254)
# The source gives no read counts; variants with many changes may rest on few reads.
# B1: OR4K15 (parent)
# chain: GUUAACGGUCAUAGGCCAUGGAAACUAGGAGCACCAUUUCGCUGCCAGUGAAGAAAUGAACAAAGAAAAUCUGGGCCAGGCAGGCAUCAAAAGAAAUAGUCUUGCGCUCAACCAGAAAGUCUGUAAUCAUUUUAAGGGUA
# Variants of: B1
# Assay: self-cleavage, relative activity (ratio to wild type); higher = more cleavage; in vitro, sequencing; the parent is a self-cleaving ribozyme
row,Variant,self-cleavage
1,GUUAGCGGUCAUAGGCCAUGGAAACUAGGAGCACCAUUUCGCUGCCAGUGAAGAAAUGAACAAAGAAAAUCUGGGCCAGGCAGGCAUCAAAAGAAAUAGUCUUGCGCUCAACCAGAGAGUCUGUAGUCAUUUUAAGGGUA [A5G A117G A126G],0.47
2,GUUAACGGUCUUAGGCCAUGGAGACUAGGAGCACCAUUUCGCUGCCUGUGAAGAAAUGAACGAAGAAAAUCUGGGCCAGGCAGGCAUCAAAAGAAAUAGUCUUGCGCUCAACCAGAAAGUCUGUAACCAUUUUAAGGGUA [A11U A23G A47U A62G U127C],0.21
3,GUUAACGGUCAUAGGCCAUGGAAACUAGGAGCACCAUUUCGCCGCCAGUGAAGGAAUGAACAAAGAAAUUCUGGGCCAGGCAGGCAUCAAAAGAAAUAGCCUUGCGCUCAACCAGAAAGUCUGUAAUCAUUUUAAGGGUA [U43C A54G A69U U100C],1.88
4,GUAAACGGUCAUAGGCCAUGGAAACUAGGAGCACCUUUUCGCUGCCAGUGAAGAAAUGAACAAAGAAAAUCUGGGCCAGGCAGGCAUCAAAAGAAAUAGUCUUGCGCUCAACCAGAAAGUCUGAAAUCAUUUUAAGGGUA [U3A A36U U124A],1.12
5,UUUAACGGUCAUAGGCCGUGGAAACUAGGAGCACCAUUUCGCUGCCAGUGAAGAAAUGAACAGAGAAAAUCUGGGCCAGGCAGGCAUCAAAAGAAAUAGUCUUGCGCUCAACCAGAAAGUCUGUAAUCAUUUUAAGGGUA [G1U A18G A63G],0.77
6,GUUAACGGCCGUAGGCCAUGGGAACUAGGAGCACCAUUUCGCUGCCAGUGAAGAAAUGAACAAAGAAGAUCUGGGCCAGGCAGGCAUCAAAAGAAAUAGUCUUGCGCUCAACCAGAAAGUCUGUAAUCAUUUUAAGGGUA [U9C A11G A22G A68G],1.43
7,GUUAACGGUCAUAGGCCAUGGAAACUAGGAGCACUAUUUCCCUGCCAGUGAAGAAAUGAACAAAGAAAAUCUGGGCCAGGCAGGCAUCAAAAGAAAUAGUCCUGCGCUCAACCAGAAAGUCUGUAAUCAUUUUAAGGGUA [C35U G41C U102C],1.51
8,GUUAACGGUCAUAGGCCAUGGAAACUAGGAGCACCAUUUCGCUGCCAGUGAAGAAAUGAACAAAGAAAAUCUGAGCCUGGCAGGCAUCAAAGGAAAUAGUCCUGCGCUCAACCAGAAAGUCUGUAAUCAUUUUAAGGGUA [G74A A78U A92G U102C],0.33
9,GUUAACGGUCAUAGGCCAUGGAAACUAGGGGCACCAUUUCGCUGCCAGUGAGGAAAUGAACAAAGAAAACCUGGGCCAGGCAGGCAUCAAAAGAAAUAGUCUUGCGCUCAACCAGAAAGUCUGUAAUCAUUUUAAGGGUA [A30G A52G U70C],1.23
10,GUUAACGGUCAUAGGCCAUGGAAACUAGGAGCACCAUAUCGCUGCCAGUGAAGAAAUGAGCAAAGAAAAUCUGGGCCAGGCAGGCAUCAAAAGAAAUAGUCUUGCGCUCAACCAGAAAGUCUGUAAUCACCUUAAGGGUA [U38A A60G U130C U131C],1.17
11,GUUAACGGUCAUAGGCCAUGGAGACUAGGAGCACCAUUUCGCUGCCAGUGAAGAAAUGAACAAAGAAAAUCUGGGCCAGGCAGGCAUCAAAAGAAAUAGUCUUGCGCUCAACCAGAAAGACUGUGAUCAUUUUAAGGGUA [A23G U120A A125G],0.89
12,GUUAACGGUCAUAGGCCAUGGAAGCUAGGGGCACCAUUUCGCUGCCAGUGAAGAAAUGAACAAAGAAAGUCUGGGCCAGGCAGGCAUCAAAAGAGAUAGUCUUGCGCUCAACCAGAAAGUCUGUAAUCAUUUUAAGGGUA [A24G A30G A69G A95G],0.77
13,GUUAACGGUCAUAGGCCAUGGAAACUAGGAGCACCAUUUCGCUGCCCGUGAAGAGAUGAACAAAGAAAAUCUGGGCCAGGCAGGCAUCAAAAGAAAUAGUCUUGCGCUCAACCAGAAAGUCUGUAAUCUUUUUAAGGGUA [A47C A55G A129U],1.26
14,GUUAACGGUCAUAGGCCAUGGAGACUAGGAGCACCAUUUCGCUGCCAGCGAAGAAAUGAACAAAGAAAAUCUGGGCCAGGCGGGCAUCAAAAGAAAUAGUCUUGCGCUCAACCAGAAAGUCUGUAAUCAUUUUAAGGGUA [A23G U49C A82G],0.57
15,GUUAACGGUCAUAGGCCAUGGAAACUAGGAGCAACAUUUCGCUGCCAGUGAAGAAAUGAACAAAGAAAGUCUGGGCCAGGCAGGCUUCAAGAGAAAUAGUCUUGCGCCCAACCAGAAAGUCUGUAAUCAUUUUAAGGGUA [C34A A69G A86U A91G U108C],0.02
16,GUUAACGGUCAUAGGCCAUGGAAACUAGGAGCACCAUUUCGCUGCCAGUGAAGAAAUGUACAAAGAAAAUCUGGGCCAGGCAGGCAUCAAAAGGAAUAGUCUUGCGCUCAACCAGAAGGUCUGUAUUCAUUUUAAGGGUA [A59U A94G A118G A126U],0.64
17,GUUAACGGUCAUAGGCCAUGGUAACUAGGAGCACCAUUUCGCUGCCGGUGAAGAAAUGAACAAAGAAAAUCUGGGCCAGGCAGGCAUCAAAAGAAAUAGUCUUGCGCUCAACCAGAAAGCCAGUAAUCAUUUUAAGGGUA [A22U A47G U120C U122A],0.28
18,GUUAACGGUCAUAGGCCAUGGAAACUAGGAGCACCAUUUCGCUGCCAGUGAAGAAAUGAGCAAAGAAAAUCUGGGCCAGGCAGGCAUCAAAAGAGACAGUCUUGCGCUCAACCAGAAAGUCCGUAAUCAUUUUAAGGGUA [A60G A95G U97C U122C],0.48
19,GUUAACGGUCACAGGCCAUGGAAACUAGGAGCACCAUUUCGCUGCCAGUGAAGAAAUGAACGAAGAAAAUCUGGGCCAGGCUGGCAUCAAAGGAAAUAGUCUUGCGCUCAACCAGAAAGUCUGUAAUCAUUUUAAGGGUA [U12C A62G A82U A92G],0.2
20,GUUAACGGUCAUAGGCCAUGGAAACUAGGAGCAUCAUUUCGCUGCCAGUGAAGAAAUGAACGAAGAAAAUCUGGGCCAGGCAGGCGUCAAAAGAAAUAGCCUUGCGCUCAACCGGAAAGUCUGUAAUCAUUUUAAGGGUA [C34U A62G A86G U100C A114G],0.7
21,GUUAACGGUCAUAGGCCAUGGAAACUAGGCGCACCAUUUCGCUGCCAGUGAAGAAAUGAACAAAGAAAAUCCGGGCCAGGCAGGCAUCAAAAGAAAUAGUCUUGCGCUCAACCAGAUAAUCUGUAAACAUUUUAAGGGUA [A30C U72C A117U G119A U127A],0.32

row,Variant,self-cleavage
1,GUUAGCGGUCAUAGGCCAUGGAUACUAGGAGCACCAUUUCGCUGCCAGUGAAGAAAUGAACAGAGAAAAUCUGGGCCAGGCAGGCAUCAAAAGAAAUAGCCUUGCGCUCAACCAGAAAGUCUGUAAUCAUUUUAAGGGUA [A5G A23U A63G U100C],1.7
2,GUUAGCGGUCAUAGGCCAUGGAAACUAGGAGCACCAUUUUGCUGCCAGUGAAGUAAUGAACAAAGAAACUCUGGCCCAGGCAGGCAUCAAAAGAAAUAGUCUUGCGCUCAACCAGAAAGUCUGUAAUCAUUUUAAGGGUA [A5G C40U A54U A69C G75C],0.2
3,GUUAAUGGUCAUAGGCCAUGGAAACUAGGAGCACCAUUUCGCUGCCAGUGAAGAAAUGAACAAAGAAAAUCAGGGCCAGGCAGGCAUCAAAGGAAAUAGCCUUGCGCUCAACCAGAAAGUCUGUAAUCAUUUUAAGGGUA [C6U U72A A92G U100C],0.35
4,GUUAACGGUCAAAGGCCAUGGAAACUAGGAGCACCAUCUCGCCGCCAGUGAAGAAAUGAACAAAGAAAAUCUGGGCCAGGCAGGCAUCAAAAGAAAUAGUCUUGCGCUCAACCAGAAAGUCUGUAAUCAUUUUAAGGGUA [U12A U38C U43C],2.26
5,GUUAACGGUCAUAGGCCAUGGAAACUAGGAGCGCCAUUUCGCUGCCAGUGAAGAAAUGAACAAAGAAAAUCUGAGCCAGGCAGGCAUCAAAAGAAAUAGUCUUGCGCUCAACCAGAGAGUCCGUAAUCAUUUUAAGGGUA [A33G G74A A117G U122C],0.05
6,GUUAACGGUCAUAGGCCAUGGAAACUAGGAGCACCAUUUCGCUGCCAGUGAAGAAAUGUACAAAGAAAGUCUGGGCCAGGCAGGCAUCAAAAGAAAUAGUCUUGCGCUCAACCAGAAAGUCUGUAAUCACUUUAAGGGUA [A59U A69G U130C],0.38
7,GCUAACGGUCGUAGGCCAUGGAAACUAGGAGCACCAUUUCGCUGCCAGUGAAGAAAUGAACAAAGAGAAUCUGGGCCAGGCAGGCAUCAAAAGAAAUAGUCUUGCGCUCAACCAGAAAGUCUGUAAUCAUUUUAAGGGUA [U2C A11G A67G],0.74
8,GUUAACGGUCAUAGGCCAUGGAAGCUAGGAGCACCAUUUCGCUGCCAGUGGAGAAAUGAACAAAGAAAAUCUGGGCCAGGCAGGCAUCAAAAGAAAUAGUCUUGCGCUCAACCAGAAAGUCUGUAAUCAUCUUAAGGGUA [A24G A51G U131C],0.81
9,GUUAACGGUCAUAGGCCAUGGAAACUAGGAGCACCAUUUCGCUGCCAGUGGAGAAAUGAACAAAGAAAAUCUGGGCCUGGCAGGCAUCAAAAGAAAUAGUCAUGCGCUCAACAAGAAAGUCUGUAAUCAUUUUAAGGGUA [A51G A78U U102A C113A],0.04
10,GUUAACGGUCAUAGGCCAUGGAAACUAGGAGCACCAUCUCGCUGCCAGUGAAGAAAUGAACAAAGAAAAUCUGGGCCAGGCAGGCAUCAAAAGAAAUAGUCUUGCGCUCUACCAGAGAGUCUGUAAUCAUUUUAAGGGUA [U38C A110U A117G],0.92
11,GUUAACGGUCAUAGGCCAUGGAAACUAGGAGCACCAUUUCGUUGCCAGUGAAGAAAUGGACAAAGAAAAUCUGGGCCAGGCAGGCAUCAAAAGAGAUAGUCUUGCGCUCAACCAGAAAGUCUGUAAUCAUUUUAAGGGUA [C42U A59G A95G],1.28
12,GUUAACGGUCAUAGGCCAUGGAAACUAGGAGCACCAUUUCGCUGCCAGUGAAGAAAUGAACAAAGAAAGGCCGGGCCAGGCAGGCAUCAAAAGAAAUAGUCUUGCGCUCAACCAGAAAGUCUGCAAUCAUUUUAAGGGUA [A69G U70G U72C U124C],0.17
13,GUUAACGGUCAUAGGCCAUGGAAACUAGGGGCACCAUUUCGCUGCCCGUGGAGAAAUGAACAAAGAAAAUCUGGGCCAGGCAGGCAUCAAAAGAAAUAGUCCUGCGCUCAACCAGAAAGCCCGUAAUCAUUUUAAGGGUA [A30G A47C A51G U102C U120C U122C],0.31
14,GUUAACGGUCAUAGGCCAUGGAAACUAGGAGCACCAUUUCGCUGCCAGUGAAGAAAUGAACGAAGAGAAUCUGGGCCAGGCAGGCAUCAAAAGAAACAGUCUUGCGCUCAACCUGAAAGUCUGUAAUCAUUUUAAGGGUA [A62G A67G U97C A114U],0.05
15,GUUAACGGUCAUAGGCCAAGGAAACUAGGAGCACCAUUUCGCCGCCAGUGAAGAAAUGAACAAAGAAAAUCUGGGCCAGGCAGGCAUCAAAAGAAAUAGUCUAGCGCUCAACCAGAAAGUCUGUAAUCAUUUUAAGGGUA [U19A U43C U103A],0.69
16,GUUAACGGUCAUAGGCCAUGGAAACUAGGAGCACCAUUUCGCAGCCAGUGAAGAAAUGAACAAAGAAAAUCUGGGCCAGGCAGGCAUCAAAAGAAAUAGUCUUGCGCUCAACCAGAAAGUCUGUGAUCAUUUUAGGGGUA [U43A A125G A135G],0.69
17,GUUAACGGUCAUGGGCCAUGGAAACUAGGAGCACCAUUUCGCUGCCAGUGAGGAAAUGAACAAAGAGAAUCUGGGCCAGGCAGGCAUCGAAAGAAAUAGUCUUGCGCUCAACCAGAAAGUCUGUAAUCAUUUUAAGGGUA [A13G A52G A67G A89G],0.86
18,GUUAACGGUCAUAGGCCAUGGGAACUAGGAGCACCAUUUCGCUGCCAGUGAAGAAACGAACAAAGAAAAUCUGGGCCAGGCAGGCAUCAAAAGAAAUAGUCUUGCGCUCAACCAGAAAGCCUGUAAUCAUUUUAAGGGUA [A22G U57C U120C],0.45
19,GUUAACGGUCAUAGGCCAUGGAAACUAGGAGCACCACCUCGCUGCCAGUGAAGAGAUGAACAAAGAAAAUCUGGGCCAGGCAGGCGUCAAAAGAAAUAGUCUUGCGCUCAACCAGAAAGUCUGUAAUCAUUUUAAGGGUA [U37C U38C A55G A86G],1.95
20,GUUAACGGUCAUAGGCCAUGGAAACUAGGAGCACCAUUUCGCUGCCAGUGGGGAAAUGAACAAAGAAAAUCUGGGCUAGGCAGGCACCAAAAGAAAUAGUCUUGCGCUCAACCAGAAAGUCUGUAAUCAUUUUAAGGGUA [A51G A52G C77U U87C],1.2
